Laboratory results as given in PubChem BioAssay (NCI).
Values joined by “and” are separate entries in the source; they are usually repeats but may differ in a detail not shown here. Equal entries are not always repeated.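 All cell lines were grown in 96-well plates and treated with compound for 48 hours. GI50 = concentration required for 50% inhibition of growth. TGI: total growth inhibition.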

test system: NCI-H322M lung; test: inhibition of tumour cell growth, NCI panel, 48 h

First: CC/C(=C(/c1ccc(O)cc1)c1ccc(OCCNC)cc1)c1ccccc1
Second: COc1ccc(/C(COc2c(-c3ccccc3)oc3ccccc3c2=O)=N\O)cc1
The GI50 of the first is 17-fold higher: 3.51 µM for the first, 0.205 µM for the second.

Compared with COc1cc(C2=C(c3ccccc3)COC2=O)cc(OC)c1OC, FC(F)(F)c1cccc(Nc2nccc(-c3cnn4nc(-c5ccccc5)ccc34)n2)c1 is higher in GI50: 6.46 µM for the first, over 16 µM for the second.

First: CCN(CC)c1ccc(/C=C/c2ccc3cc(C)ccc3[n+]2CC)cc1
Second: CC1=CC(=Nc2ccc(N(CCCl)CCCl)cc2)C=C(C)C1=O
The GI50 of the first is 27-fold lower: 0.405 µM for the first, 10.9 µM for the second.

First: Oc1ccc2ccccc2c1N=Nc1nccs1
Second: CCCn1cnc2c(SCc3ccccc3Cl)nc(N)nc21
The GI50 of the first is 6.2-fold lower: 5.68 µM for the first, 35 µM for the second.

Going from Nc1nc(Cl)c2ncn(Cc3ccc(C45CC6CC(CC(C6)C4)C5)c(O)c3)c2n1 to Oc1c(CN2CCC(N3CCCCC3)CC2)cc(Cc2cc(CN3CCC(N4CCCCC4)CC3)c(O)c3ncccc23)c2cccnc12, the GI50 falls from 2.69 µM to 0.964 µM (2.8-fold).

Compared with CC[CH2][Sn]([CH2]CC)([O]C(=O)c1cccnc1SC)[O][Sn]([CH2]CC)([CH2]CC)[O]C(=O)c1cccnc1SC, C=CCCCCCCCCC(=O)[O][Sn]([CH2]CCC)([CH2]CCC)[CH2]CCC is 13-fold lower in GI50: 2.04 µM for the first, 0.163 µM for the second.

Compared with C[C@@H]1OC(O)[C@@H](F)[C@H](O)[C@@H]1O (stereo partly specified), O=C1Nc2c(C(F)(F)F)cccc2[C@]1(c1ccc(O)cc1)c1ccc(OC(F)(F)F)cc1 is lower in GI50: over 100 µM for the first, 7.5 µM for the second.

First: CC/C(=C(/c1ccc(O)cc1)c1ccc(OCCNC)cc1)c1ccccc1
Second: COc1ccc(/C(COc2c(-c3ccccc3)oc3ccccc3c2=O)=N\O)cc1
The TGI of the first is 1.6-fold lower: 12 µM for the first, 19.4 µM for the second.

COC(=O)Cc1c([C@H]2[C@H](CC(=O)OC)c3ccccc3N2C(C)=O)[nH]c2ccccc12 and COC(=O)C1Cc2c(n(Cc3ccccc3)c3ccccc23)C(CCC(=O)O)N1C(C)C (stereo unspecified) cannot be ordered by TGI: over 100 µM for the first, over 100 µM for the second.

CC1(C)C=C(S(=O)(=O)c2ccccc2)Oc2ccccc2O1 and O=C(O)C(CS)N=c1c2ccccc2n(O)c2ccccc12 (stereo unspecified) cannot be ordered by TGI: over 100 µM for the first, over 100 µM for the second.

Going from O=C(N/N=C/c1ccco1)c1cc(I)cc(I)c1O to O=C(N/N=C/c1cc(Br)cc(Br)c1[O-])c1ccccc1O.O=C(N/N=C/c1cc(Br)cc(Br)c1[O-])c1ccccc1O.[Fe+2], the TGI falls from over 50 µM to 19.9 µM.

CCC(C)C(=O)OC1CC2(C)C(c3ccoc3)OC(=O)CC23OC2(C)OC34C(OC(=O)C(C)C)C3(O)C(OC(=O)C5(C)OC5C)C5(C)CC3(O)C(C)(C5CC(=O)OC)C14O2 (stereo unspecified) and CCOC(=O)C(CC#Cc1ccc(C#CCC(NC(C)=O)C(=O)OCC)cc1)NC(C)=O (stereo unspecified) cannot be ordered by TGI: over 100 µM for the first, over 100 µM for the second.

COc1cc(C2=C(c3ccccc3)COC2=O)cc(OC)c1OC and COc1ccc(/C=C/c2nccc3ccccc23)cc1OC cannot be ordered by TGI: over 100 µM for the first, over 10 µM for the second.

Going from C=C1C(=O)O[C@@]23C1CC[C@@H](C)C2CC[C@@]1(C)OC31 (stereo partly specified) to COC1(OC)CCCCC2c3cccc(OC(C)=O)c3C21OC(C)=O (stereo unspecified), the TGI rises from 54.1 µM to over 100 µM.

Cc1cc2ncc3c(=O)n(NS(=O)(=O)c4ccc(N)cc4)ccc3n2n1 and Cc1c2ncccc2cc2oc3ccccc3c(=O)c12 cannot be ordered by TGI: over 100 µM for the first, over 100 µM for the second.

COc1ccc(-c2c(C#N)c(N)nc3c2CCS(=O)(=O)c2ccccc2-3)cc1 and COc1cc(/C=C\C(=O)O)ccc1OCc1ccccc1 cannot be ordered by TGI: over 100 µM for the first, over 100 µM for the second.

First: C=CCOCCCCC(C(C)=O)C(=O)OC (stereo unspecified)
Second: C=CCCCCCCCCC(=O)[O][Sn]([CH2]CCC)([CH2]CCC)[CH2]CCC
The TGI of the first is higher: over 100 µM for the first, 0.328 µM for the second.

O=C(CC1=NCCN1)c1ccccc1 and CNC(=O)N(CCC#N)[C@H]1CCCC[C@@H]1N(C(=O)NC)c1ccccc1 cannot be ordered by TGI: over 750 µM for the first, over 100 µM for the second.

Going from CCN(CC)c1ccc(/C=C/c2ccc3cc(C)ccc3[n+]2CC)cc1 to CC1=CC(=Nc2ccc(N(CCCl)CCCl)cc2)C=C(C)C1=O, the TGI rises from 11.7 µM to 33.2 µM (2.8-fold).

Oc1ccc2ccccc2c1N=Nc1nccs1 and CCCn1cnc2c(SCc3ccccc3Cl)nc(N)nc21 cannot be ordered by TGI: over 90.1 µM for the first, over 100 µM for the second.

CC1CC(=O)Nc2nc3ccccc3n21 (stereo unspecified) and Brc1cc2nn(-c3ccccc3)nc2c2nonc12 cannot be ordered by TGI: over 100 µM for the first, over 100 µM for the second.

COC(=O)/C=C/c1cc(OC)c(OC)c(OC)c1 and COc1c(Br)cc(CC(N)=O)c(O)c1Br cannot be ordered by TGI: over 100 µM for the first, over 100 µM for the second.

Compared with FC(F)(F)c1cccc(Nc2nccc(-c3cnn4nc(-c5ccccc5)ccc34)n2)c1, O=C1Nc2c(C(F)(F)F)cccc2[C@]1(c1ccc(O)cc1)c1ccc(OC(F)(F)F)cc1 is lower in TGI: over 25 µM for the first, 20.3 µM for the second.

Going from CC(C)(C)c1cc(/C=C(\C#N)C(=O)NCCO)cc(C(C)(C)C)c1O to O=C(Nc1ccccc1C(=O)NCCCO)/C(=C/c1ccccc1O)NC(=O)c1ccccc1, the TGI rises from 71.3 µM to over 100 µM.

Nc1nc(Cl)c2ncn(Cc3ccc(C45CC6CC(CC(C6)C4)C5)c(O)c3)c2n1 and Oc1c(CN2CCC(N3CCCCC3)CC2)cc(Cc2cc(CN3CCC(N4CCCCC4)CC3)c(O)c3ncccc23)c2cccnc12 are within 1.5-fold of each other in TGI: 12.3 µM for the first, 13.3 µM for the second.

Compared with CC(C)(C)C1CCC2(CC1)c1[nH]c3ccccc3c1C1(CCC(C(C)(C)C)CC1)c1[nH]c3ccccc3c12 (stereo unspecified), CSC(C1c2ccccc2N(c2ccc(C)cc2)C2=NC(=O)N(C)C(=O)C21Cl)S(=O)(=O)c1ccc(C)cc1 (stereo unspecified) is lower in TGI: over 100 µM for the first, 59.7 µM for the second.

First: CC[CH2][Sn]([CH2]CC)([O]C(=O)c1cccnc1SC)[O][Sn]([CH2]CC)([CH2]CC)[O]C(=O)c1cccnc1SC
Second: Clc1ccc(OCc2nnc(CCCCCCCCc3nnc(COc4ccc(Cl)cc4)n3Nc3ccccc3)n2Nc2ccccc2)cc1
The TGI of the first is lower: 4.84 µM for the first, over 100 µM for the second.

Going from C/C(CC(=O)Nc1cc(Cl)c(Cl)cc1Cl)=N\NC(N)=O to CCC(C)c1c(Cl)nc(Cl)nc1Cl (stereo unspecified), the TGI falls from over 100 µM to 22.9 µM.

C[C@@H]1OC(O)[C@@H](F)[C@H](O)[C@@H]1O (stereo partly specified) and O=C1NC2OC(CO)C(O)C(O1)C2O (stereo unspecified) cannot be ordered by TGI: over 100 µM for the first, over 100 µM for the second.

Work on Brc1ccc2c(-c3csc(-c4c[nH]c5ccc(Br)cc45)n3)c[nH]c2c1 yielded a TGI of 14.6 µM.

For CCN(CC)CCOc1ccc(/C(=C(\Cl)c2ccccc2)c2ccccc2)cc1, the GI50 was 6.63 µM and 2.04 µM.

In the case of CCN(CC)CCOc1ccc(/C(=C(\Cl)c2ccccc2)c2ccccc2)cc1, the TGI is reported as 13.9 µM and 8.08 µM.
